Among all 2,800 compounds or so, fewer than 10 were called active. The call rests on the fitted dose curve; in most records, active means well fitted curve in the direction sought with a large enough effect; inconclusive means small, poorly fitted or top-dose-only effect, or another doubt; inactive means no such curve, though single readings can be large or run the other way. This is one part of the list.
Each molecule was assayed against Metallo-beta-lactamase type 2 (Klebsiella pneumoniae) (UniProt C7C422) (assay: qHTS to identify inhibitors of the New Delhi Metallo-beta-lactamase (NDM): Meropenem screen against the machine-based learning selections.). Conditions: Purified NDM-1, meropenem hydrolysis, absorbance 300 nm; at 38.4 µM (top of the series) unless noted.
UniProt C7C422, sequence (C7C422 whole entry, looked up): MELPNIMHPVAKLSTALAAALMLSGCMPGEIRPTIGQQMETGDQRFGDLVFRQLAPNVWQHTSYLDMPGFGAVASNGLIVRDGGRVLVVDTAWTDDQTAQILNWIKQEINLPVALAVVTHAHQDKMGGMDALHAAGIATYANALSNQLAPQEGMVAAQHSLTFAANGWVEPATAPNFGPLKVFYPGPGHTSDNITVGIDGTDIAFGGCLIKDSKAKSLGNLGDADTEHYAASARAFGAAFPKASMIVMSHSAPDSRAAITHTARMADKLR
Outline: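 Hydrolysis by 2 nM NDM-1 was followed by absorbance after >30 min compound preincubation in HEPES pH 7.0 buffer with 1 uM Zn2SO4. For nitrocefin (16.7 uM, 15 min, 485 nm) and meropenem (50 uM, 30 min, 300 nm), each substrate ran on separate plates.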
Further: % of control where 0% means no effect.

Activity change, negative = inhibition, inactive:
Cc1cc(C(=O)N[C@H](C)c2onc(C)c2C(=O)O)c(C)o1 18.3% [at 57.5 µM]
COc1ccc(CN2CC[C@@H]3[C@H]2C(=O)NC[C@H](CCC(=O)NCc2ccc(F)cc2)N3C)cc1 0.433%
CCn1nc(C)cc1C(=O)N1CCOC[C@H](Oc2cccnc2)C1 -2.79% [at 57.5 µM]
CC(C)CCN1CCNC(=O)C1CC(=O)N(Cc1nccs1)C1CC1 (stereo not drawn) 5.54%
Cc1cc2c(cc1C(=O)N[C@H](c1ccccn1)C1CC(O)C1)OCCO2 (stereo partly drawn) 2.04%
O=C1N[C@H](CCC(=O)N2CCN(Cc3ccccc3)CC2)C(=O)Nc2ccccc21 -2.17%
O=[N+]([O-])c1ccccc1CN1C[C@H](O)C[C@H]1c1nc(-c2ccncc2)no1 3.82% [at 57.5 µM]
O=C(NCCc1nccc(-c2ccccc2)n1)[C@H]1CCC[C@H](O)C1 -0.234%
CC1(C(=O)NCc2cnccn2)CCCc2cnc(NCc3ccccc3)nc21 (stereo not drawn) -0.945% [at 57.5 µM]
c1ccc(Nc2ncc(-c3ccccc3)c3c2OCC3)cc1 2.64% [at 76.7 µM]
CNC(=O)[C@@H]1CN(C(=O)c2cc3cc(OC)ccc3[nH]2)C[C@H]1CO 14.1%
Cc1noc(C)c1CNCC1(COc2cnccn2)C[C@@H](O)[C@@H](O)C1 (stereo partly drawn) 49.8% [at 57.5 µM]
COc1ccc(CN2C(=O)CO[C@H]3CN(C4CCOCC4)C[C@H]32)cc1 0.907% [at 57.5 µM]
CC(C)(O)CCc1cccc(C(=O)N(Cc2ccc3c(c2)OCO3)C2CC2)c1 0.484%
CSCCCN1C[C@@H](C(=O)O)C[C@H](C(=O)NCc2ccccn2)C1 44.8%
CN1C[C@H](C(=O)NCc2ccncc2)C[C@H]1c1cccc(C(F)(F)F)c1 0.704% [at 57.5 µM]
Cc1ccncc1C(=O)N1CCC2(CC1)CC(c1ccccc1)C(=O)N2C (stereo not drawn) -0.502%
O=C(NC1CCC(O)CC1)C1CCCN(c2nc(-c3ccccc3)nc3c2CCC3)C1 (stereo not drawn) 5.81%
O=C(Cc1c[nH]c2ncc(-c3cccnc3)cc12)NC1CCOCC1 16.6% [at 57.5 µM]
Cc1nc(-c2c3n(c(=O)n(Cc4cccc(Cl)c4)c2=O)CCCCC3)no1 -1.13%
CCOc1cc(C(=O)N2CCN(c3cc(-c4ccc(Cl)cc4)[nH]n3)CC2)cc(OCC)c1OCC 0.171%
CCCNC(=O)N1CC(c2noc(C3CCCN3CC3CC3)n2)C1 (stereo not drawn) -0.243%
Cc1ccc(-c2nnc([C@H]3CCN(Cc4ccc(CO)o4)C3)o2)cc1 0.841% [at 57.5 µM]
C[C@@H](NC(=O)C1CC1)c1onc(-c2ccc(F)cc2)c1C(=O)O 2.28% [at 57.5 µM]
CC(C)CCCC(=O)N1C[C@@H](C(=O)O)C[C@@H](C(=O)NCc2ccncc2)C1 0.381%
CC(C)(O)CCc1cccc(C(=O)NCCNc2cccnc2)c1 6.29%
CCc1ncc(C(=O)Nc2nn(CC(F)(F)F)c3cc(OC(C)C)ccc23)cn1 7.84%
O=C(Nc1cccc(C(F)(F)F)c1)N[C@@H]1C[C@H](CO)[C@@H](O)[C@H]1O 0.574% [at 57.5 µM]
CC(C)CCNC(=O)c1cc(-c2ccncc2)cn1C 8.6%
O=c1ncn(Cc2ccccc2)c2ccc(-c3ccc(O)c(F)c3)nc12 7.75% [at 57.5 µM]
C[C@H](O)c1c(-c2ccc(Cl)cc2)noc1C(=O)NC1CC1 -0.975% [at 57.5 µM]
CN(C)Cc1nnc(C2CC(NC(=O)Cc3c(F)cccc3Cl)C2)n1C (stereo not drawn) 50.9%
Cn1cc(C(NC(=O)c2ccc3c(c2)ncn3CCO)C2CC(O)C2)cn1 (stereo not drawn) 0.34%
COc1ccc(NC(=O)Cc2c[nH]c3ncc(-c4ccccc4)cc23)cn1 2.95% [at 57.5 µM]
COc1ccc(C(=O)N2CC[C@@H](CC(=O)O)[C@@H](CCN3CCN(c4ccccn4)CC3)C2)cc1 19.3%
O=C(Cc1c[nH]c2ncc(-c3ccsc3)cc12)NCc1cccnc1 -0.817% [at 57.5 µM]
O=C(Nc1ccc(F)c(Cl)c1)N1CCCC(Cn2c(C3CC3)nc3cccnc32)C1 (stereo not drawn) 0.164%
COC[C@H]1CCCN1C(=O)CC[C@H]1CNC(=O)[C@@H]2[C@@H](CCN2Cc2cccs2)N1C 0.397% [at 57.5 µM]
COCCC(=O)NCC12CCC=C1N(CC1CC1)C(=O)CC2 (stereo not drawn) 3.99%
NC(=O)c1cccc(-c2n[nH]c3c2CC(=O)N(Cc2ccccc2)C3)c1 2.77% [at 57.5 µM]
Cc1nnnn1Cc1ccc(C(=O)N2CCc3nc(-c4cn[nH]c4)[nH]c3C2)cc1 1.87%
O=C(NCc1nnc2ccc(-c3ccccc3)nn12)c1cc(F)ccc1Cl 0.0548%
O=C1Nc2cc(Cl)ccc2C(=O)N2CCN(C(=O)c3ccccc3)C[C@H]12 -2.45% [at 57.5 µM]
NCCn1cc(C(=O)N2CCCC(c3[nH]ncc3Cc3ccccc3)C2)nn1 (stereo not drawn) 35.9%
COc1cccc(Nc2cc3[nH]ccc3c(C(=O)NCc3c(C)cc(C)[nH]c3=O)n2)c1 19.1% [at 57.5 µM]
CSc1ncccc1C(=O)NC1CCCN(CCCc2ccccc2)C1 (stereo not drawn) 0.314%
COCC(=O)Nc1ccc([C@@H](O)[C@H]2COCC(=O)N2Cc2ccccc2F)cc1 -0.201% [at 57.5 µM]
Nc1nc(C2CC(O)C2)cc(N2CCC(O)(Cn3ccnc3)CC2)n1 (stereo not drawn) 2.82%
O[C@H]1[C@H](NCc2ccc(-c3ccccc3)cc2)[C@H]2CO[C@H](O2)[C@@H]1Oc1ccccc1 -0.362% [at 57.5 µM]
CCCC(C)N1CC2(CCN(C(=O)c3cnn4c3CCCC4)CC2)OC1=O (stereo not drawn) 1.32%
COc1nc2c(cc1CNC(=O)C1CCOC1)C(=O)N(CCc1ccccn1)C2 (stereo not drawn) 3.61%
Cc1cc(C)n(C2CCN(c3ncnc4c3c(C)nn4C)C2)n1 (stereo not drawn) -0.52%
N[C@@H]1CCN(Cc2ccccc2OCc2ccc(Cl)cc2)C[C@H]1O 1.17%
COC(=O)[C@@H]1Cc2ncn(C(C)C)c2CN1S(=O)(=O)c1ccc(OC)cc1 8.07% [at 57.5 µM]
O=C(O)CCC(=O)N[C@H]1CCN2C(=O)c3cc(-c4ccc(Cl)cc4)ccc3NC(=O)[C@H]12 12.6% [at 57.5 µM]
O=C(O)CCn1ncc2cc(OCc3ccc(-c4cncnc4)cc3)ccc21 7.69% [at 57.5 µM]
COc1ccc(Nc2cc3c(cn2)CN(CCc2ccccc2)CCN3)cn1 1.3% [at 57.5 µM]
CN(C)Cc1cc(-c2nccn2CC2(CO)CCCC2)ccc1O -2.01%
CCCCN(C)C(=O)Cc1cccn1-c1cccc(Cl)c1 -1.87%
COc1ccc(-c2cnc3[nH]cc(CC(=O)NC4CCC(O)CC4)c3c2)cc1 (stereo not drawn) 5.54% [at 57.5 µM]
O=C(NC[C@H]1OC[C@@H](NCc2ncc[nH]2)[C@@H]1O)C1CCCC1 10.7% [at 57.5 µM]
OCc1ccc(CN2CC[C@@H](c3ccc4ccccc4c3)[C@H](O)C2)o1 4.83%
O=C(Cc1c[nH]c2ncc(-c3ccccc3)cc12)NCCc1ccccc1 1.88% [at 57.5 µM]
Cc1ccc(C(=O)NC2CCN(c3cn[nH]c(=O)c3)CC2)cc1C 5.44%
O=C(C[C@@H]1CCNC[C@@H]1Cc1cc(CC2CCCCC2)on1)NC1CC1 -0.0742% [at 57.5 µM]
c1cc(CN2CCNc3cc(-c4ccsc4)ncc3C2)ccn1 6.87% [at 57.5 µM]
COc1cccc(NC(=O)O[C@@H]2CC[C@]3(C)C(CC[C@@H](O)[C@H]3CC(=O)N3CCCC3)[C@]2(C)CO)c1 (stereo partly drawn) -0.329%
OC(c1cccc(C(F)(F)F)c1)c1nc(Nc2cccnc2)n[nH]1 (stereo not drawn) 0.817% [at 57.5 µM]
Cc1ccc(NC(=O)Cn2c(-c3ccc(F)cc3)nc(C)c(CCO)c2=O)cc1Cl 2.42%
O=C1N(C2CCCCC2)C[C@H]2CN(Cc3cccc(Cl)c3)CCN12 0.0117% [at 57.5 µM]
Cc1cc(=O)n(CC(=O)Nc2ccc(N(C)C)cc2)c(-c2ccc(Cl)cc2)n1 7.34%
O=C1Nc2ccc(-c3ccccc3F)cc2C(=O)N2C[C@@H](NS(=O)(=O)c3ccc(F)cc3)C[C@@H]12 2.41%
Cc1ccccc1NC(=O)c1cnc2c(c1)N(Cc1ccccc1)CCC2 4.53% [at 57.5 µM]
Fc1ccc(CNc2cc3c(cn2)CN(Cc2ccncc2)CCN3)cc1 3.97% [at 57.5 µM]
Cc1noc(C)c1S(=O)(=O)N1CC(c2noc(C3CCCN3C)n2)C1 (stereo not drawn) -1.35%
O=C(Nc1ccc([C@H]2OCC(=O)N(C3CCOCC3)[C@@H]2CO)cc1)c1cnccn1 10.3% [at 57.5 µM]
CC(C)c1noc([C@@H]2C[C@H](NC(=O)Nc3ccc(F)cc3)CN2C)n1 -1.13% [at 57.5 µM]
CN1CCC(N2C[C@@H]3C[C@H]2C(=O)N(CC2CC2)c2ccccc2O3)CC1 0.475% [at 57.5 µM]
